# Measurements as given in PMC4336329 (PLoS ONE, 2015).
# About 2,200 (0.71%) of roughly 310,000 compounds showed an effect of 50% or more. The effect is printed as a negative number. Some of the results follow.
# Target: human ether-à-go-go-related gene (hERG) potassium channel (human, UniProt Q12809)
# Assay: primary screen, population patch clamp on CHO cells stably expressing hERG
# Sequence of human ether-à-go-go-related gene (hERG) potassium channel (Q12809 whole entry, looked up): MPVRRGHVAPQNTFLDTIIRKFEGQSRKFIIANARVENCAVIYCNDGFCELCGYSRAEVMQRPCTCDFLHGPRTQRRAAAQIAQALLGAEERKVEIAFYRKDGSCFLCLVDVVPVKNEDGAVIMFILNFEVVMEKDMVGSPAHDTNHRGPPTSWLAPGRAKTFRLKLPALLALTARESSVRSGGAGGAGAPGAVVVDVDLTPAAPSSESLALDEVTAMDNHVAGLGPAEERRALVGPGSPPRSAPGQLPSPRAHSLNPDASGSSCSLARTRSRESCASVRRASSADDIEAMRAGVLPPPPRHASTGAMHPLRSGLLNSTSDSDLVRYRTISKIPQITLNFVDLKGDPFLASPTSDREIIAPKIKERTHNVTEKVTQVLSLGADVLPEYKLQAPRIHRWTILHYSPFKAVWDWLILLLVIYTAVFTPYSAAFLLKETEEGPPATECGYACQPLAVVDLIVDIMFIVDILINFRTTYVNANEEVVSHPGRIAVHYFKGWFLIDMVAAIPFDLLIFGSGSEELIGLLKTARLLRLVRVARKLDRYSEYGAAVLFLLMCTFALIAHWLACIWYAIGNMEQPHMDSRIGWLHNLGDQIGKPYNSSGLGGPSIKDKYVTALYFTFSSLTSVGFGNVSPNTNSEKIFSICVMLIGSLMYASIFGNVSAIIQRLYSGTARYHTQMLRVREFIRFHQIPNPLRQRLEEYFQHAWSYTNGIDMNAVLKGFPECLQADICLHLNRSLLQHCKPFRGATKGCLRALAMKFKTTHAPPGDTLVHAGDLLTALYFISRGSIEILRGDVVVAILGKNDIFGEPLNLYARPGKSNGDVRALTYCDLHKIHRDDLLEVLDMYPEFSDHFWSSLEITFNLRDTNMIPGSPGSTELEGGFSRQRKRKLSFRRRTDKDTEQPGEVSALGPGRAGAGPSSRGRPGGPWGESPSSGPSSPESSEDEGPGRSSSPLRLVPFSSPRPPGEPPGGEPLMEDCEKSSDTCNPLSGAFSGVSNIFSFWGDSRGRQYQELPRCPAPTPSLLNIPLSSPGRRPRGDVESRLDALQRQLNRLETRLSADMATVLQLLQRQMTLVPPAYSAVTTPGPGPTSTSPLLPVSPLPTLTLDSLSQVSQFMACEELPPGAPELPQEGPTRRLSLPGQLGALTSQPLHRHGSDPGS
row,SMILES,"hERG current change (%, negative = inhibition) at 1uM [%]"
1,O=C(COc1ccc2ccc(=O)oc2c1)NCc1ccccn1,12.9
2,COCc1cc(C)nc(SCC(=O)Nc2ccc3[nH]c(=O)[nH]c3c2)c1C#N,11.8
3,COc1ccc2[nH]c3c(=O)n(/N=C/[C@H]4C(C)C=C(C)CC4C)c(=O)[nH]c3c2c1 (some centres unmarked),13.4
4,Cc1nc2c(-c3ccccc3)c(C)nn2c(N)c1-c1ccccc1,-0.743
5,O=C(NC1CCCCCCC1)c1cnccn1,6.27
6,CCc1ccccc1Nc1nn2c(=O)c3ccc(C(=O)NCc4ccccn4)cc3nc2s1,7.39
7,Cc1ccc(CN(C(=O)COc2ccc(Br)cc2)C2CCS(=O)(=O)C2)o1 (centres unmarked),-13.4
8,COc1ccc(C)cc1NC(=O)CCNS(=O)(=O)c1cccc2nonc12,12.9
9,CC(C)(C)C(=O)Nc1ccccc1C(=O)Nc1cc(Cl)ccc1Cl,2.06
10,O=C(CNS(=O)(=O)c1ccccc1)NCC(=O)N1CCCCC1,14.8
11,CCCNC(=O)COC(=O)c1ccccc1C(=O)N(C)C1CCCCC1,12.7
12,O=C(c1cccc(S(=O)(=O)N2CCCC2)c1)N1CCN(c2ncccn2)CC1,2.76
13,CCOc1ccc(NC(=O)N(CCN(C)C)C(C)c2cccnc2)cc1 (centres unmarked),12.5
14,Cc1ccc(S(=O)(=O)C2(C(=O)N3CCCC(C)C3)CC2)cc1 (centres unmarked),2.25
15,COC(=O)C1=C(c2ccc(F)cc2OCc2ccccc2)C[C@@H]2CC[C@H]1N2C(=O)NCCc1ccc(F)cc1,13.3
16,C/C(=N/N1CCN(c2ccccn2)CC1)c1ccc([N+](=O)[O-])cc1,-8.58
17,c1ccc2c(c1)ccc1ncccc12,0.593
18,Cc1cc(C)c(NC(=O)c2ccc3c(c2)NC(=O)C(C)S3)c(C)c1 (centres unmarked),2.78
19,CS(=O)(=O)N(CC(=O)Nc1ccccc1C(=O)NCc1ccco1)c1ccccc1F,-1.41

row,SMILES,"hERG current change (%, negative = inhibition) at 1uM [%]"
1,CC(OC(=O)CCC(=O)c1cccs1)C(=O)NC1CCCCC1C (centres unmarked),0.622
2,Cl.N=c1n(CCN2CCCCC2)c2ccccc2n1CC(O)c1ccco1 (centres unmarked),-4.15
3,O=C(O)CSc1c2c(nc3cc(C(=O)NCCN4CCOCC4)ccc13)CCC2,-1.36
4,CCOP(=O)(OCC)c1cc(C)c(O)c(C(C)(C)C)c1,8.82
5,Cn1cc(C(=O)OCC(=O)N2CCCC2)c2ccccc21,6.85
6,CCOC(=O)CC(NC(=O)c1cc2cccc(OC)c2oc1=O)c1cccc([N+](=O)[O-])c1 (centres unmarked),5.93
7,COc1ccc(-c2cc(=[NH+]c3cccc(C(=O)O)c3)c3cc(C)ccc3o2)cc1.[O-][Cl+3]([O-])([O-])[O-],6.72
8,COCc1cc(C)nc(SCC(=O)Nc2cccc(C)c2)c1C#N,16.6
9,CC(=O)c1ccc(OCC(=O)N(C)CC(=O)Nc2ccc(N3CCOCC3)cc2)cc1,5.34
10,CCN(CC(=O)Nc1cccc(S(=O)(=O)N2CCOCC2)c1)Cc1ccccc1,13.4
11,COc1ccc(C(=O)Nc2ccc(Oc3nc(C)nc4sc(-c5ccccc5)cc34)cc2)cc1OC,12.5
12,Cc1cccc(C)c1NC(=O)CNCC(=O)N(C)C,-2.22
13,CCc1cc2c(COC(=O)c3c(C)noc3C)cc(=O)oc2cc1O,17
14,O=C1CCc2cc(S(=O)(=O)Nc3cccc(F)c3)cc3c2N1CC3,-5.06
15,CC(C)Oc1cccc(-c2cc(C(=O)N3CCN(c4ncccn4)CC3)c3ccccc3n2)c1,17.8
16,O=C(CCc1ccccc1)Nc1ccc(S(=O)(=O)N2CCCC2)cc1,3.63
17,COc1ccccc1C1=NOC(Cn2c(=O)c3c(ncn3C)n(C)c2=O)C1 (centres unmarked),5.97
18,N#CCCN(CCC#N)C(=O)C1c2ccccc2Oc2ccccc21,13.7
19,COc1ccc(-c2cn3cccnc3n2)cc1NC(=O)C(C)Oc1ccccc1 (centres unmarked),13.6

row,SMILES,"hERG current change (%, negative = inhibition) at 1uM [%]"
1,CCCOc1ccc(C2C(=O)N(C3CCCCCC3)CC(=O)N2Cc2ccco2)cc1OC (centres unmarked),-8.54
2,COC(=O)CCS(=O)(=O)c1ccc(NC(C)=O)cc1,16.1
3,Cn1cc(CN2CCCC(C(=O)Nc3ccc(-c4cccc(F)c4)cc3)C2)cn1 (centres unmarked),3.47
4,CCOC(=O)CSc1nnc(NC(=O)c2cccc([N+](=O)[O-])c2C)s1,6.75
5,CCCCCCCCNC(CO)(CO)CO,11.5
6,COc1ccc(C(=O)n2nnc3ccccc32)cc1Br,12.5
7,Cc1ccc(C)c(OCCC(=O)Nc2cccc(S(=O)(=O)N3CCCC3)c2)c1,13
8,CCOc1ccc(Cl)cc1CNCCCSc1ncccn1,2.25
9,CCOc1ccccc1N1CC(C(=O)Nc2cc(Cl)ccc2C)CC1=O (centres unmarked),5.84
10,CC1(C)CC(=O)N(Cc2ccccc2)C(=O)C1,8.7
11,CCCS(=O)(=O)N1CCCC(C(=O)NCCCN2CCCC2=O)C1 (centres unmarked),14
12,COc1cccc(OCC(=O)Nc2c3c(nn2-c2ccccc2)CS(=O)(=O)C3)c1,-4.86
13,Cc1ccc(Cl)cc1NS(=O)(=O)c1ccc2c(c1)NC(=O)C(C)C(=O)N2 (centres unmarked),14
14,CCCCC(Nc1ncnc2ccccc12)C(=O)O (centres unmarked),5.89
15,Cc1onc(-c2ccccc2)c1C(=O)/C=C/N(C)C,12
16,COc1ccc(Cl)cc1C(=O)Nc1nc2ccc(S(C)(=O)=O)cc2s1,12.3
17,COc1ccc(/C=C(\C#N)C(=O)Nc2ccc3[nH]c(=O)[nH]c3c2)cc1,8.33
18,CC1CCCN(C(C(=O)NC2CCCCC2)c2cc3c(cc2[N+](=O)[O-])OCO3)C1 (centres unmarked),7.89
